Test results taken from patent US20120021973A1, “Peptides for Treatment of Obesity” (priority 2008, published 2012).
Part of at least one peptide drawing is inferred or uncertain, most often the ends. For at least one compound, name, drawing or mass did not settle the structure. Where a SMILES comes first, the peptide text is derived from it. Bridges are numbered along the chain shown (N, C = ends). Side-chain parts run from the residue outwards. [ ]: non-standard residue; d: D form. The star is where a group is joined. Palmitoyl(16-(5-tetrazolyl)) = O=C(CCCCCCCCCCCCCCCc1nnn[nH]1)*; Lys(CH2CO2H)2 = N[C@@H](CCCCN(CC(=O)O)CC(=O)O)C(=O)O; Hyp = O=C(O)[C@@H]1C[C@@H](O)CN1; NTA = O=C(O)CN(CC(=O)O)CC(=O)*; Nle = CCCC[C@H](N)C(=O)O; Orn = NCCC[C@H](N)C(=O)O; Dap = NC[C@H](N)C(=O)O; AEEA = NCCOCCOCC(=O)O; βAla = NCCC(=O)O

Tested on: ad libitum fed rat
Assay: Assay (I) efficacy testing on appetite, ad libitum fed rat model
Assay type: in vivo
Method: Assay (I)— Experimental Protocol for Efficacy Testing on Appetite with MC4 Analogues, Using an Ad Libitum Fed Rat Model.
TAC:SPRD @mol rats or Wistar rats from M&B Breeding and Research Centre A/S, Denmark are used for the experiments. The rats have a body weight 200-250 g at the start of experiment. The rats arrive at least 10-14 days before start of experiment with a body weight of 180-200 g. Each dose of compound is tested in a group of 8 rats. A vehicle group of 8 rats is included in each set of testing.
When the animals arrive they are housed individually in a reversed light/dark phase (lights off 7:30 am, lights on 7:30 pm), meaning that lights are off during daytime and on during nighttime. Since rats normally initiate food intake when light is removed, and eat the major part of their daily food intake during the night, this set up results in an alteration of the initiation time for food intake to 7:30 am, when lights are switched off. During the acclimatization period of 10-14 days, the rats have free access to food and water. During this period the animals are handled at least 3 times. The experiment is conducted in the rats' home cages. Immediately before dosing the rats are randomised to the various treatment groups (n 8) by body weight. They are dosed according to body weight at between 7:00 am and 7:45 am, with a 1-3 mg/kg solution administered intraperitoneally (ip), orally (po) or subcutaneously (sc). The time of dosing is recorded for each group. After dosing, the rats are returned to their home cages, where they then have access to food and water. The food consumption is recorded individually every hour for 7 hours, and then after 24 h and sometimes 48 h. At the end of the experimental session, the animals are euthanised.
The individual data are recorded in Microsoft excel sheets. Outliers are excluded after applying the Grubbs statistical evaluation test for outliers, and the result is presented graphically using the GraphPad Prism program.

Row | SMILES | Food consumption (% of vehicle) 24 h (3 mg/kg) | Food consumption (% of vehicle) 48 h (3 mg/kg) | Food consumption (% of vehicle) 48 h (1 mg/kg) | Food consumption (% of vehicle) 24 h (1 mg/kg)
1 | CCCC[C@H](NC(=O)[C@H](CCCCNC(=O)CN(CC(=O)O)CC(=O)O)NC(=O)[C@H](Cc1c[nH]cn1)NC(=O)[C@H](CCC(N)=O)NC(=O)[C@H](CO)NC(=O)CNC(=O)COCCOCCNC(=O)CCCCCCCCCCCCCCCc1nnn[nH]1)C(=O)N[C@H]1CCC(=O)NCCCC[C@@H](C(N)=O)NC(=O)[C@H](Cc2c[nH]c3ccccc23)NC(=O)[C@H](CCCNC(=N)N)NC(=O)[C@@H](Cc2ccccc2)NC(=O)[C@@H]2C[C@@H](O)CN2C1=O [Example 1, (2-{2-[16-(Tetrazol-5-yl)hexadecanoylamino]ethoxy}ethoxy)acetyl-Gly-Ser-Gln-His-Lys(BCMA)-Nle-c[Glu-Hyp-D-Phe-Arg-Trp-Lys]-NH2] ({Palmitoyl(16-(5-tetrazolyl))-AEEA}-GSQHK(NTA)[Nle]E[Hyp][dF]RWK-NH2; lactam 7-12) | 65 % of vehicle | 72 % of vehicle |  | 
2 | CCCC[C@H](NC(=O)[C@H](CNC(=O)[C@H](Cc1c[nH]cn1)NC(=O)[C@H](CCC(N)=O)NC(=O)[C@H](CO)NC(=O)CNC(=O)COCCOCCNC(=O)CCCCCCCCCCCCCCCc1nnn[nH]1)NC(=O)CN(CC(=O)O)CC(=O)O)C(=O)N[C@H]1CCC(=O)NCCCC[C@@H](C(N)=O)NC(=O)[C@H](Cc2c[nH]c3ccccc23)NC(=O)[C@H](CCCNC(=N)N)NC(=O)[C@@H](Cc2ccccc2)NC(=O)[C@@H]2C[C@@H](O)CN2C1=O [Example 2, (2-{2-[16-(Tetrazol-5-yl)hexadecanoylamino]ethoxy}ethoxy)acetyl-Gly-Ser-Gln-His-β-Dap(BCMA)-Nle-c[Glu-Hyp-D-Phe-Arg-Trp-Lys]-NH2] ({NTA}-[Dap]([His-Gln-Ser-Gly-AEEA-Palmitoyl(16-(5-tetrazolyl))])[Nle]E[Hyp][dF]RWK-NH2; lactam 3-8) |  |  | 71 % of vehicle | 
3 | CCCC[C@H](NC(=O)[C@H](CCCCN(CC(=O)O)CC(=O)O)NC(=O)[C@H](CO)NC(=O)[C@H](CCC(N)=O)NC(=O)[C@H](CO)NC(=O)CNC(=O)COCCOCCNC(=O)CCCCCCCCCCCCCCCc1nnn[nH]1)C(=O)N[C@H]1CCC(=O)NCCCC[C@@H](C(N)=O)NC(=O)[C@H](Cc2c[nH]c3ccccc23)NC(=O)[C@H](CCCNC(=N)N)NC(=O)[C@@H](Cc2ccccc2)NC(=O)[C@@H]2C[C@@H](O)CN2C1=O [Example 5, (2-{2-[16-(Tetrazol-5-yl)hexadecanoylamino]ethoxy}ethoxy)acetyl-Gly-Ser-Gln-Ser-Lys(biscarboxymethyl)-Nle-c[Glu-Hyp-D-Phe-Arg-Trp-Lys]-NH2] ({Palmitoyl(16-(5-tetrazolyl))-AEEA}-GSQS[Lys(CH2CO2H)2][Nle]E[Hyp][dF]RWK-NH2; lactam 7-12) |  |  | 91 % of vehicle | 81 % of vehicle
4 | CCCC[C@H](NC(=O)[C@H](CCCNC(=O)CN(CC(=O)O)CC(=O)O)NC(=O)[C@H](Cc1c[nH]cn1)NC(=O)[C@H](CCC(N)=O)NC(=O)[C@H](CO)NC(=O)CNC(=O)COCCOCCNC(=O)CCCCCCCCCCCCCCCc1nnn[nH]1)C(=O)N[C@H]1CCC(=O)NCCCC[C@@H](C(N)=O)NC(=O)[C@H](Cc2c[nH]c3ccccc23)NC(=O)[C@H](CCCNC(=N)N)NC(=O)[C@@H](Cc2ccccc2)NC(=O)[C@@H]2C[C@@H](O)CN2C1=O [Example 8, (2-{2-[16-(Tetrazol-5-yl)hexadecanoylamino]ethoxy}ethoxy)acetyl-Gly-Ser-Gln-His-Orn(BCMA)-Nle-c[Glu-Hyp-D-Phe-Arg-Trp-Lys]-NH2] ({Palmitoyl(16-(5-tetrazolyl))-AEEA}-GSQH[Orn](NTA)[Nle]E[Hyp][dF]RWK-NH2; lactam 7-12) |  |  | 75 % of vehicle | 62 % of vehicle
5 | CCCC[C@H](NC(=O)[C@H](CCCCN(CC(=O)O)CC(=O)O)NC(=O)CCNC(=O)[C@H](Cc1c[nH]cn1)NC(=O)[C@H](CCC(N)=O)NC(=O)[C@H](CO)NC(=O)[C@H](CO)NC(=O)[C@H](CCC(N)=O)NC(=O)[C@@H](CO)NC(=O)CNC(=O)COCCOCCNC(=O)COCCOCCNC(=O)CCCCCCCCCCCCCCCc1nnn[nH]1)C(=O)N[C@H]1CCC(=O)NCCCC[C@@H](C(N)=O)NC(=O)[C@H](Cc2c[nH]c3ccccc23)NC(=O)[C@H](CCCNC(=N)N)NC(=O)[C@@H](Cc2ccccc2)NC(=O)[C@@H]2C[C@@H](O)CN2C1=O [Example 12, (2-{2-[2-(2-{2-[16-(Tetrazol-5-yl)hexadecanoylamino]ethoxy}ethoxy)acetylamino]ethoxy}ethoxy)acetyl-Gly-D-Ser-Gln-Ser-Ser-Gln-His-β-Ala-Lys(biscarboxymethyl)-Nle-c[Glu-Hyp-D-Phe-Arg-Trp-Lys]-NH2] ({Palmitoyl(16-(5-tetrazolyl))-AEEA-AEEA}-G[dS]QSSQH[βAla][Lys(CH2CO2H)2][Nle]E[Hyp][dF]RWK-NH2; lactam 11-16) |  |  | 77 % of vehicle | 62 % of vehicle
6 | CCCC[C@H](NC(=O)[C@H](CCCCN(CC(=O)O)CC(=O)O)NC(=O)CCNC(=O)[C@H](Cc1c[nH]cn1)NC(=O)[C@H](CCC(N)=O)NC(=O)[C@H](CO)NC(=O)[C@H](CO)NC(=O)[C@H](CCC(N)=O)NC(=O)[C@@H](CO)NC(=O)CNC(=O)COCCOCCNC(=O)COCCOCCNC(=O)CCCCCCCCCCCCCCCc1nnn[nH]1)C(=O)N[C@H]1CCC(=O)NCCCC[C@@H](C(N)=O)NC(=O)[C@H](Cc2c[nH]c3ccccc23)NC(=O)[C@H](CCCNC(=N)N)NC(=O)[C@@H](Cc2ccccc2)NC(=O)[C@@H]2C[C@@H](O)CN2C1=O [Example 20, (2-{2-[2-(2-{2-[16-(Tetrazol-5-yl)hexadecanoylamino]ethoxy}ethoxy)acetylamino]ethoxy}ethoxy)acetyl-Gly-D-Ser-Gln-Ser-Ser-Gln-His-β-Ala-Lys(biscarboxymethyl)-Nle-c[Glu-Hyp-D-Phe-Arg-Trp-Lys]-NH2] ({Palmitoyl(16-(5-tetrazolyl))-AEEA-AEEA}-G[dS]QSSQH[βAla][Lys(CH2CO2H)2][Nle]E[Hyp][dF]RWK-NH2; lactam 11-16 (inferred)) |  |  | 72 % of vehicle | 61 % of vehicle
